# In the supplement of paper PMC8728848:
# Some of the results follow.
# B1: Epa3 (Candida glabrata), Q6VBI8_CANGB (protein)
# chain: MGSSHHHHHHSSGLVPRGSHMNDLGFSLFEKRELSSQNPFGYPIGCSPQDVAIIPGLTMELYSYPIVSGTPPNCYDASYVDPEYPRTGYLKRKMVGKSTGVTGNLNYKYSVEKACMVKYGNLPAGYNYNEPLTVSNFTMILYGYFKAQTTGLHTFFVNADDLLYINFGAGNAFDCCKREDSKTKLGEYVAYDIWHVDSSKNKVSLFLEKDLYYPIRMFFNNIGKDSSLDLSFSVNGATDQISDFSGYLYSVPDQPDTCPAHIGYDTTCR
# What was measured:
# Assay in all cases: glycan array binding signal (z-score within array); higher = stronger binding
# Conditions in all cases: glycan notation: IUPAC condensed, linker removed
# [1] = molecular target: Gal(b1-4)GlcNAc(b1-3)Gal(b1-4)GlcNAc(b1-3)Gal(b1-4)GlcNAc
# In short: (§1)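 From the Consortium for Functional Glycomics database, 3228 arrays were curated, keeping only those whose protein sequence was available. Binding is given as a within-array Z-score averaged across arrays sharing a protein sequence and across linkers. Negative Z-scores can be read as non-binding.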
# [2] = molecular target: Gal(b1-4)GlcNAc(b1-3)Gal(b1-4)GlcNAc(b1-3)Gal(b1-4)GlcNAc(b1-2)Man(a1-3)[Gal(b1-4)GlcNAc(b1-3)Gal(b1-4)GlcNAc(b1-3)Gal(b1-4)GlcNAc(b1-2)Man(a1-6)]Man(b1-4)GlcNAc(b1-4)GlcNAc
# In short: as §1
# [3] = molecular target: Gal(b1-4)GlcNAc(b1-3)Gal(b1-4)GlcNAc(b1-3)Gal(b1-4)GlcNAc(b1-2)Man(a1-3)[Gal(b1-4)GlcNAc(b1-3)Gal(b1-4)GlcNAc(b1-3)Gal(b1-4)GlcNAc(b1-2)Man(a1-6)]Man(b1-4)GlcNAc(b1-4)[Fuc(a1-6)]GlcNAc
# In short: as §1
# [4] = molecular target: Gal(b1-4)GlcNAc(b1-3)Gal(b1-4)GlcNAc(b1-3)Gal(b1-4)GlcNAc(b1-2)[Gal(b1-4)GlcNAc(b1-3)Gal(b1-4)GlcNAc(b1-3)Gal(b1-4)GlcNAc(b1-6)]Man(a1-6)[Gal(b1-4)GlcNAc(b1-3)Gal(b1-4)GlcNAc(b1-3)Gal(b1-4)GlcNAc(b1-2)Man(a1-3)]Man(b1-4)GlcNAc(b1-4)[Fuc(a1-6)]GlcNAc
# In short: as §1
# [5] = molecular target: Gal(b1-4)GlcNAc(b1-3)Gal(b1-4)GlcNAc(b1-3)Gal(b1-4)GlcNAc(b1-3)Gal(b1-4)GlcNAc(b1-2)Man(a1-3)[Gal(b1-4)GlcNAc(b1-3)Gal(b1-4)GlcNAc(b1-3)Gal(b1-4)GlcNAc(b1-3)Gal(b1-4)GlcNAc(b1-2)Man(a1-6)]Man(b1-4)GlcNAc(b1-4)GlcNAc
# In short: as §1
# [6] = molecular target: Gal(b1-4)GlcNAc(b1-3)Gal(b1-4)GlcNAc(b1-3)Gal(b1-4)GlcNAc(b1-3)Gal(b1-4)GlcNAc(b1-2)Man(a1-3)[Gal(b1-4)GlcNAc(b1-3)Gal(b1-4)GlcNAc(b1-3)Gal(b1-4)GlcNAc(b1-3)Gal(b1-4)GlcNAc(b1-2)Man(a1-6)]Man(b1-4)GlcNAc(b1-4)[Fuc(a1-6)]GlcNAc
# In short: as §1
# [7] = molecular target: Gal(b1-4)GlcNAc(b1-3)Gal(b1-4)GlcNAc(b1-3)Gal(b1-4)GlcNAc(b1-3)Gal(b1-4)GlcNAc(b1-2)[Gal(b1-4)GlcNAc(b1-3)Gal(b1-4)GlcNAc(b1-3)Gal(b1-4)GlcNAc(b1-3)Gal(b1-4)GlcNAc(b1-6)]Man(a1-6)[Gal(b1-4)GlcNAc(b1-3)Gal(b1-4)GlcNAc(b1-3)Gal(b1-4)GlcNAc(b1-3)Gal(b1-4)GlcNAc(b1-2)Man(a1-3)]Man(b1-4)GlcNAc(b1-4)[Fuc(a1-6)]GlcNAc
# In short: as §1
# [8] = molecular target: Gal(b1-4)GlcNAc(b1-3)Gal(b1-4)GlcNAc(b1-3)Gal(b1-4)GlcNAc(b1-3)Gal(b1-4)GlcNAc(b1-3)Gal(b1-4)GlcNAc(b1-2)Man(a1-3)[Gal(b1-4)GlcNAc(b1-3)Gal(b1-4)GlcNAc(b1-3)Gal(b1-4)GlcNAc(b1-3)Gal(b1-4)GlcNAc(b1-3)Gal(b1-4)GlcNAc(b1-2)Man(a1-6)]Man(b1-4)GlcNAc(b1-4)GlcNAc
# In short: as §1
# [9] = molecular target: Gal(b1-4)GlcNAc(b1-3)Gal(b1-4)GlcNAc(b1-3)Gal(b1-4)GlcNAc(b1-3)Gal(b1-4)GlcNAc(b1-3)Gal(b1-4)GlcNAc(b1-2)Man(a1-3)[Gal(b1-4)GlcNAc(b1-3)Gal(b1-4)GlcNAc(b1-3)Gal(b1-4)GlcNAc(b1-3)Gal(b1-4)GlcNAc(b1-3)Gal(b1-4)GlcNAc(b1-2)Man(a1-6)]Man(b1-4)GlcNAc(b1-4)[Fuc(a1-6)]GlcNAc
# In short: as §1
# [10] = molecular target: Gal(b1-4)GlcNAc(b1-3)Gal(b1-4)GlcNAc(b1-3)Gal(b1-4)GlcNAc(b1-3)Gal(b1-4)GlcNAc(b1-3)Gal(b1-4)GlcNAc(b1-2)[Gal(b1-4)GlcNAc(b1-3)Gal(b1-4)GlcNAc(b1-3)Gal(b1-4)GlcNAc(b1-3)Gal(b1-4)GlcNAc(b1-3)Gal(b1-4)GlcNAc(b1-6)]Man(a1-6)[Gal(b1-4)GlcNAc(b1-3)Gal(b1-4)GlcNAc(b1-3)Gal(b1-4)GlcNAc(b1-3)Gal(b1-4)GlcNAc(b1-3)Gal(b1-4)GlcNAc(b1-2)Man(a1-3)]Man(b1-4)GlcNAc(b1-4)[Fuc(a1-6)]GlcNAc
# In short: as §1
# [11] = molecular target: Gal(b1-4)GlcNAc(b1-3)Gal(b1-4)GlcNAc(b1-3)Gal(b1-4)GlcNAc(b1-3)Gal(b1-4)GlcNAc(b1-3)Gal(b1-4)GlcNAc(b1-3)Gal(b1-4)GlcNAc(b1-2)Man(a1-3)[Gal(b1-4)GlcNAc(b1-3)Gal(b1-4)GlcNAc(b1-3)Gal(b1-4)GlcNAc(b1-3)Gal(b1-4)GlcNAc(b1-3)Gal(b1-4)GlcNAc(b1-3)Gal(b1-4)GlcNAc(b1-2)Man(a1-6)]Man(b1-4)GlcNAc(b1-4)GlcNAc
# In short: as §1
# [12] = molecular target: Gal(b1-4)GlcNAc(b1-3)Gal(b1-4)GlcNAc(b1-3)GalNAc
# In short: as §1
# [13] = molecular target: Gal(b1-4)GlcNAc(b1-3)Gal(b1-4)GlcNAc(b1-3)[Gal(b1-4)GlcNAc(b1-3)Gal(b1-4)GlcNAc(b1-6)]GalNAc
# In short: as §1
# [14] = molecular target: Gal(b1-4)GlcNAc(b1-3)Gal(b1-4)GlcNAc(b1-6)[Gal(b1-3)]GalNAc
# In short: as §1
# [15] = molecular target: Gal(b1-4)GlcNAc(b1-3)Gal(b1-4)[Fuc(a1-3)]GlcNAc(b1-3)Gal(b1-4)[Fuc(a1-3)]GlcNAc
# In short: as §1
# [16] = molecular target: Gal(b1-4)GlcNAc(b1-3)GalNAc
# In short: as §1
# [17] = molecular target: Gal(b1-4)GlcNAc(b1-3)[Fuc(a1-3)GlcNAc(b1-6)]Gal(b1-4)Glc
# In short: as §1
# [18] = molecular target: Gal(b1-4)GlcNAc(b1-3)[Gal(b1-4)GlcNAc(b1-6)]Gal(b1-4)GlcNAc
# In short: as §1
# [19] = molecular target: Gal(b1-4)GlcNAc(b1-3)[GlcNAc(b1-6)]Gal(b1-4)GlcNAc
# In short: as §1
binder,measurement,setting,value
B1,glycan array binding signal (z-score),[1],-0.403
same,glycan array binding signal (z-score),[2],0.864
same,glycan array binding signal (z-score),[3],0.151
same,glycan array binding signal (z-score),[4],0.09
same,glycan array binding signal (z-score),[5],0.035
same,glycan array binding signal (z-score),[6],0.059
same,glycan array binding signal (z-score),[7],-0.004
same,glycan array binding signal (z-score),[8],-0.104
same,glycan array binding signal (z-score),[9],-0.108
same,glycan array binding signal (z-score),[10],-0.003
same,glycan array binding signal (z-score),[11],-0.131
same,glycan array binding signal (z-score),[12],0.036
same,glycan array binding signal (z-score),[13],0.093
same,glycan array binding signal (z-score),[14],0.768
same,glycan array binding signal (z-score),[15],-0.168
same,glycan array binding signal (z-score),[16],-0.379
same,glycan array binding signal (z-score),[17],-0.265
same,glycan array binding signal (z-score),[18],-0.322
same,glycan array binding signal (z-score),[19],-0.322
